# Experimental data taken from the antibiotic and cytotoxicity screens of Wong et al. (2023).
# Some of the results follow.
# Assays:
# HSkMC = human skeletal muscle cells; assay: cytotoxicity call (relative viability < 0.9); settings: 10 µM
# HepG2 = assay: cytotoxicity call (relative viability < 0.9); settings: 10 µM
# S. aureus RN4220 = assay: growth inhibition call (relative growth <= 0.2); settings: 50 µM
SMILES,cytotoxicity call (HSkMC),cytotoxicity call (HepG2),growth inhibition call (S. aureus RN4220)
C[C@@H]1CN([C@H](C)CO)C(=O)Cc2cc(NC(=O)CCN3CCOCC3)ccc2O[C@H]1CN(C)S(=O)(=O)c1cccs1,inactive,inactive,inactive
CC(=O)NC1C(NC(=N)N)C=C(C(=O)O)OC1C(O)C(O)CO (stereo unspecified),inactive,inactive,inactive
COc1ccc(NC(=O)Nc2ccc3c(c2)C(=O)N([C@@H](C)CO)C[C@@H](C)[C@@H](CN(C)S(C)(=O)=O)O3)cc1,inactive,inactive,inactive
CN(C(=O)CN(CCO)CC(=O)N(C)C(C)(C)Cc1ccccc1)C(C)(C)Cc1ccccc1,inactive,active,active
CCc1ccc(Nc2c3c(nc4ccccc24)CCCC3)cc1,inactive,active,inactive
Cc1noc(C)c1NC(=O)Nc1ccc2c(c1)C(=O)N([C@@H](C)CO)C[C@H](C)[C@H](CN(C)C(=O)Nc1ccc(C(F)(F)F)cc1)O2,inactive,inactive,active
C[C@@H]1CCCCO[C@@H](CN(C)S(=O)(=O)c2ccc(F)cc2)[C@@H](C)CN([C@H](C)CO)C(=O)c2cc(NC(=O)CCC(F)(F)F)ccc2O1,inactive,inactive,inactive
Cc1noc(C)c1NC(=O)Nc1ccc2c(c1)C(=O)N([C@@H](C)CO)C[C@@H](C)[C@@H](CN(C)C(=O)Nc1cccc3ccccc13)O2,inactive,inactive,inactive
Cc1cc(C(=O)Nc2cccc3c2O[C@H](CN(C)C(=O)NC2CCCCC2)[C@H](C)CN([C@@H](C)CO)C3=O)n(C)n1,inactive,inactive,inactive
Cc1n[nH]c(C)c1S(=O)(=O)N1CCCC1,inactive,inactive,inactive
C[C@@H]1CN([C@H](C)CO)C(=O)Cc2cc(NC(=O)CCN3CCOCC3)ccc2O[C@H]1CN(C)CC1CCCCC1,inactive,inactive,inactive
CN(C)CCCNC(=O)C[C@@H]1CC[C@@H]2[C@H](COC[C@H](O)CN2S(=O)(=O)c2ccc(Cl)cc2)O1,inactive,inactive,inactive
Cn1cnc(CCNC(=O)C[C@H]2CC[C@H]3[C@@H](COC[C@@H](O)CN3C(=O)C3CC3)O2)c1,inactive,inactive,inactive
C[C@@H]1CN([C@@H](C)CO)C(=O)c2cc(NC(=O)Nc3ccc(C(F)(F)F)cc3)ccc2O[C@H]1CN(C)Cc1ccc(C(=O)Nc2ccccc2N)cc1,inactive,active,inactive
COc1ccc2c3c([nH]c2c1)[C@@H](CO)N(Cc1nccs1)C[C@]13CCN(CC1)C(=O)C1CCOCC1,inactive,inactive,inactive
CNC[C@@H]1Oc2c(NS(=O)(=O)c3cn(C)cn3)cccc2C(=O)N([C@H](C)CO)C[C@H]1C,inactive,inactive,inactive
C=CCN1C(=O)[C@@]2(O[C@@H](CCn3cc([C@H](O)c4ccccc4)nn3)[C@H]([Si](C)(C)c3ccc(OC)cc3)[C@H]2C)c2ccccc21,inactive,inactive,inactive
C[C@@H]1CN([C@@H](C)CO)C(=O)Cc2cc(NC(=O)Cc3cn(C)c4ccccc34)ccc2O[C@@H]1CN(C)S(=O)(=O)c1cn(C)cn1,inactive,inactive,inactive
O=C(C[C@@H]1C[C@@H]2c3cc(NS(=O)(=O)c4ccc(F)cc4)ccc3O[C@@H]2[C@@H](CO)O1)NCCN1CCCCC1,inactive,inactive,inactive
C[C@H](CO)N1C[C@H](C)[C@H](CN(C)Cc2ccc(C(F)(F)F)cc2)OCCCC[C@H](C)Oc2ccc(NC(=O)Nc3ccc(C(F)(F)F)cc3)cc2C1=O,inactive,active,inactive
C[C@H](CO)N1C[C@H](C)[C@@H](CN(C)C(=O)c2ccccc2)OCCCC[C@H](C)Oc2ccc(NC(=O)Nc3ccc(C(F)(F)F)cc3)cc2C1=O,inactive,inactive,inactive
C[C@@H]1CCCCO[C@@H](CN(C)Cc2ccncc2)[C@@H](C)CN([C@@H](C)CO)C(=O)c2cc(NC(=O)Nc3ccc4c(c3)OCO4)ccc2O1,inactive,inactive,inactive
C[C@H](CO)N1C[C@H](C)[C@@H](CN(C)C(=O)CCN2CCCCC2)Oc2ncc(C#CCN(C)C)cc2C1=O,inactive,inactive,inactive
O=C([C@H]1[C@H](CO)[C@H]2Cn3c(cccc3=O)[C@H]2N1C(=O)C1CCCC1)N1CCOCC1,inactive,inactive,inactive
COc1ccc(NC(=O)N(C)C[C@@H]2OCCCC[C@@H](C)Oc3ccc(NC(=O)CCC(F)(F)F)cc3C(=O)N([C@H](C)CO)C[C@@H]2C)cc1,inactive,inactive,inactive
C[C@H](CO)N1C[C@H](C)[C@H](CN(C)Cc2ccc(Oc3ccccc3)cc2)Oc2ccc(NC(=O)Nc3ccccc3)cc2CC1=O,inactive,inactive,inactive
C[C@@H]1CN([C@H](C)CO)C(=O)c2cc(NS(C)(=O)=O)ccc2O[C@H]1CN(C)Cc1ccc(C(=O)Nc2ccccc2N)cc1,inactive,inactive,inactive
